Experimental data as given in patent US4161542A, “Heart active compounds” (priority 1975, dated 1979).
At least one read-out could not be matched to a standard name with certainty.

Assay: Blood pressure lowering effect in conscious dog
Type: in vivo, Beagle dog
[1] = 0.5 mg/kg i.v. (cumulative dose), 15 minutes after administration, methylscopolamine pretreated
[2] = 2.0 mg/kg i.v. (cumulative dose), 15 minutes after administration, methylscopolamine pretreated

SMILES	Conscious dog Δ BP After i.v. Injection of β Blocking Agent [1] [mm Hg]	Conscious dog Δ BP After i.v. Injection of β Blocking Agent [2] [mm Hg]	Conscious dog Δ BP After i.v. Injection of β Blocking Agent (measured at a dose of 1.5 mg/kg, effects experimentally not significant (footnote)) [mm Hg]
Cc1ccccc1OCC(O)CNC(C)Cc1ccc(O)cc1 (stereo not drawn) [Ex. 1, 3-[2-(4-hydroxyphenyl)-1-methylethylamino]-1-o-methylphenoxy-propanol-2]	-24	-31	–
CCc1ccccc1OCC(O)CNC(C)Cc1ccc(O)cc1 (stereo not drawn) [Ex. 2, 3-[2-(4-hydroxyphenyl)-1-methylethylamino]-1-o-ethylphenoxy-propanol-2]	-17	-40	–
C=CCc1ccccc1OCC(O)CNC(C)Cc1ccc(O)cc1 (stereo not drawn) [Ex. 3, 3-[2-(4-hydroxyphenyl)-1-methylethylamino]-1-o-allylphenoxy-propanol-2]	-22	-16	–
C#CCOc1ccccc1OCC(O)CNC(C)Cc1ccc(O)cc1 (stereo not drawn) [Ex. 4, 3-[2-(4-hydroxyphenyl)-1-methylethylamino]-1-o-propargyloxyphenoxy-propanol-2]	-34	-41	–
Cc1ccccc1OCC(O)CNC(C)(C)Cc1ccc(O)cc1 (stereo not drawn) [Ex. 5, 3-[2-(4-hydroxyphenyl)-1,1-dimethylethylamino]-1-o-methylphenoxy-propanol-2]	-17	-17	–
C=CCc1ccccc1OCC(O)CNC(C)(C)Cc1ccc(O)cc1 (stereo not drawn) [Ex. 7, 3-[2-(4-hydroxyphenyl)-1,1-dimethylethylamino]-1-o-allylphenoxy-propanol-2]	-28	-43	–
CCc1ccccc1OCC(O)C(C)NC(C)Cc1ccc(O)cc1 (stereo not drawn) [Ex. 11, 3-methyl-3-[2-(4-hydroxyphenyl)-1-methylethylamino]-1-o-ethylphenoxy-propanol-2]	-32	-50	–
COCCc1ccc(OCC(O)CNC(C)C)cc1 (stereo not drawn) [Metoprolol, metoprolol, reference compound]	–	–	-5
